{
  "source": "PubChem BioAssay AID1346428",
  "about": "(National Center for Advancing Translational Sciences (NCATS), 2018)",
  "note": "“And” between values parts separate entries of the source, which are not always exact repeats. Identical values can stand only once. The campaign covered roughly 48,000 compounds. About 1,200 (2.5%) were called active. Not shown: some 2% with an inconclusive outcome.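 The calls were made as follows: active = activation of at least 60% and not above a set upper limit (about 1 call in 100 departs from these limits); inconclusive = activation of 40% to 60%, or above that upper limit; inactive = activation under 40%.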 The list shows a part of the results.",
  "data": [
    {"target": "Probable G-protein coupled receptor 32 (Homo sapiens) (UniProt O75388)", "sequence (O75388 whole entry, looked up, the tested form may be a part)": "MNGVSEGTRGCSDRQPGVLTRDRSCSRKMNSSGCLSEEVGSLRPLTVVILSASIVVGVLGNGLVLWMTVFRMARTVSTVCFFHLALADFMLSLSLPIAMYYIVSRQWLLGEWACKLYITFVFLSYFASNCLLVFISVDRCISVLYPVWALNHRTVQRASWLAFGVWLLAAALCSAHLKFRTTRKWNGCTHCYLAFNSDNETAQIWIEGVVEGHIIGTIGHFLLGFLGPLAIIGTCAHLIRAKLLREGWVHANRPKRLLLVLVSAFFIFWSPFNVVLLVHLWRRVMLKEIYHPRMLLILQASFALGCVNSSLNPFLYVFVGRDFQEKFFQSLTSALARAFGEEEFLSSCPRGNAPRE", "experiment": "qHTS for Agonists of Human Resolvin D1 Receptor DRV1; also: 0% is about no effect", "settings": "CHO-K1 GPR32 beta-arrestin PathHunter luminescence, 90 min; at 76.9 µM; hits give high values; zero percent set by DMSO-only wells", "method_in_brief": "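Agonism was scored by beta-Gal fragment complementation (chemiluminescent read, 1 h detection at ambient temperature) reporting beta-arrestin binding to GPR32 in engineered CHO-K1 cells. Compound treatment lasted 90 min at 37 C, normalized to a DMSO basal control.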", "values": [
      {"molecule": "COc1ccccc1C(=O)Nc1nc(-c2ccccc2)ns1", "activation": "inactive: 2.96%"},
      {"molecule": "COc1ccc(Cn2c(C(=O)O)c(CNC3CCCCCC3)c3ccc(OC)cc32)cc1", "activation": "inactive: 39.9%"},
      {"molecule": "O=C(/C=C/c1ccc(F)cc1)Nc1nc2n(n1)C(c1ccc(Cl)cc1)C=C(c1ccccc1)N2", "note": "(stereo not drawn)", "activation": "inactive: -13.2%"},
      {"molecule": "COc1ccc(OC)c(CNC(=O)CCn2c(=O)c3cccn3c3ccc(F)cc32)c1", "activation": "inactive: -6.34%"},
      {"molecule": "Cc1ccc2sc(N3CCN(C(=O)CCS(=O)(=O)c4ccc(F)cc4)CC3)nc2c1C", "activation": "inactive: 21.8%"},
      {"molecule": "Cc1noc(/C=C/c2ccco2)c1S(=O)(=O)N1CCC(C(=O)Nc2ccc(F)c(Cl)c2)CC1", "activation": "inactive: -15%"},
      {"molecule": "COc1ccc(-n2ncc3c(NCCC4=CCCCC4)ncnc32)cc1", "activation": "inactive: 46.3%"},
      {"molecule": "CCC1=Nc2cc(C(=O)NC3CCCC3)ccc2Sc2ccc(Br)cc21", "activation": "inactive: -19.1%"},
      {"molecule": "Cc1ccc(N2CC(C(=O)Nc3ccc(Br)cc3)CC2=O)cc1", "note": "(stereo not drawn)", "activation": "inactive: 3.79%"},
      {"molecule": "Cc1ccccc1-c1nc(CS(=O)(=O)CC(=O)NCc2cccc(Cl)c2)c(C)o1", "activation": "inactive: 12.3%"},
      {"molecule": "COc1ccc(C(=O)n2nc(-c3ccco3)nc2NCc2cccs2)cc1", "activation": "inactive: -32.2%"},
      {"molecule": "C=Cc1ccc(CN2C(=O)N(c3cccc(Cl)c3)S(=O)(=O)c3ccccc32)cc1", "activation": "inactive: -6.68%"},
      {"molecule": "Cc1ccc2c(=O)c(C(=O)c3cccc(Cl)c3)cn(CC(=O)NCc3ccc(F)cc3)c2n1", "activation": "inactive: 2.74%"},
      {"molecule": "COc1cc(NC(=O)Cn2ncc3c([nH]c4ccc(C)cc43)c2=O)cc(OC)c1OC", "activation": "inactive: 3.5%"},
      {"molecule": "COc1cc(C(=O)Nc2ccc3oc(-c4ccccc4)nc3c2)cc(OC)c1OC", "activation": "inactive: 2.16%"},
      {"molecule": "COc1ccc(NC(=O)CSc2nnc(-c3cccs3)o2)cc1", "activation": "inactive: -6.15%"},
      {"molecule": "CCOc1ccccc1Nc1cc(-c2ccccc2)nc(C)n1", "activation": "inactive: -11.8%"},
      {"molecule": "O=C1Nc2ccc(S(=O)(=O)Nc3ccccc3O)c3cccc1c23", "activation": "inactive: -19.8%"},
      {"molecule": "Cn1c2ccccc2c2c(C(=O)N3CCN(c4ccc(F)cc4)CC3)cn(C3CCCCC3)c(=O)c21", "activation": "inactive: -27.2%"},
      {"molecule": "COc1cc(Cl)c(C)cc1NC(=O)CSc1ncc(S(=O)(=O)c2ccc(C(C)(C)C)cc2)c(=O)[nH]1", "activation": "inactive: -10.1%"},
      {"molecule": "CC(C)(Oc1ccc(C2CC2(Cl)Cl)cc1)C(=O)O", "note": "(stereo not drawn)", "activation": "inactive: 18.5% and inactive: -6.24%"},
      {"molecule": "CC(C)CCN(Cc1ccco1)C(=O)c1cc2c(Cl)nc3ccccc3c2s1", "activation": "inactive: -12.4%"},
      {"molecule": "Cc1ccc(S(=O)(=O)CC(=O)Nc2sc3c(c2C#N)CCCCC3)cc1", "activation": "inactive: 45.1%"},
      {"molecule": "CCOc1ccc(C2Nc3ccccc3-c3nnc(SCc4ccccc4)nc3O2)cc1OC", "note": "(stereo not drawn)", "activation": "inactive: 8.57%"},
      {"molecule": "COc1ccc(-c2noc(CSCC(=O)Nc3cccc(C(F)(F)F)c3)n2)cc1OC", "activation": "inactive: -13.9%"},
      {"molecule": "CCCOc1ccc(-c2nn(-c3ccccc3)cc2C2NC(=O)NC(C)=C2C(=O)OC)cc1C", "note": "(stereo not drawn)", "activation": "inactive: -28.6%"},
      {"molecule": "CCC(=O)N1CCc2cc(Br)cc(S(=O)(=O)CCC(=O)NCCc3ccc(Cl)cc3)c21", "activation": "inactive: -15.7%"},
      {"molecule": "Cc1ccccc1CNC(=O)C1CCCN(S(=O)(=O)N(C)c2ccc(F)cc2)C1", "note": "(stereo not drawn)", "activation": "inactive: 1.2%"},
      {"molecule": "CCOc1ccccc1NC(=O)Nc1nnc(N2CCCCCC2)s1", "activation": "inactive: -6.14%"},
      {"molecule": "CCc1cccc(NC(=O)c2ccc(CN3C(=O)C(C)=C(c4ccc(OC)cc4)S3(=O)=O)cc2)c1", "activation": "inactive: -7.76%"},
      {"molecule": "O=C(NCCc1csc(-c2cccc(F)c2)n1)c1cccs1", "activation": "inactive: 46.3%"},
      {"molecule": "O=C(Cc1ccccc1)Nc1sc2c(c1C(=O)Nc1ccc(Cl)cc1)CCCC2", "activation": "inactive: -21.8%"},
      {"molecule": "N#C/C(=C\\c1ccc(Cl)cc1)c1nc2ccccc2[nH]1", "activation": "inactive: 6.31%"},
      {"molecule": "Cc1cccc(NC(=O)CSc2nc3c([nH]c4ccccc43)c(=O)n2C)c1C", "activation": "inactive: -11.8%"},
      {"molecule": "CCOc1ccc(NC(=O)c2ccc(-c3nc(COc4ccccc4)c(C)o3)cc2)cc1", "activation": "inactive: -7.61%"},
      {"molecule": "Brc1ccccc1-c1ccccc1", "activation": "inactive: 11.2%"},
      {"molecule": "COc1ccccc1NC(=O)CSc1oc(-c2cccs2)nc1S(=O)(=O)c1ccc(Br)cc1", "activation": "inactive: -7.07%"},
      {"molecule": "CCOC(=O)c1ccc(NS(=O)(=O)c2ccc(Br)s2)cc1", "activation": "active: 65.6%"},
      {"molecule": "COc1ccc(NCc2cc3cc4c(cc3n(CC(=O)Nc3ccc(C)cc3)c2=O)OCO4)cc1", "activation": "inactive: -33.8%"},
      {"molecule": "COc1ccccc1CNC(=O)Cn1ncc2c3ccccc3n(Cc3ccccc3C)c2c1=O", "activation": "inactive: -7.13%"},
      {"molecule": "CC(NC(=O)Nc1ccccc1C(F)(F)F)c1c(-n2cccc2)sc2c1CCCC2", "note": "(stereo not drawn)", "activation": "inactive: -6.71%"},
      {"molecule": "COc1ccc(-c2nc(SCC(=O)Nc3ccc4c(c3)OCO4)c(-c3ccc(OC)cc3)[nH]2)cc1", "activation": "inactive: 3.06%"},
      {"molecule": "CCOc1ccc(S(=O)(=O)N2CCN(c3c(C)cccc3C)CC2)c2ccccc12", "activation": "inactive: 5.77%"},
      {"molecule": "CCOc1ccccc1NC(=O)C1CCN(S(=O)(=O)c2ccccc2)CC1", "activation": "inactive: -8.27%"},
      {"molecule": "CN(C(=O)CSc1nc2c(c(=O)[nH]1)CCCC2)c1ccccc1", "activation": "inactive: 12.4%"},
      {"molecule": "Cc1cc(C)cc(OC(=O)c2snnc2C)c1", "activation": "inactive: -2.08%"},
      {"molecule": "Cc1cc(C)c(NC(=O)c2cc3c(=O)n4ccccc4nc3n2C)c(C)c1", "activation": "inactive: 3.99%"},
      {"molecule": "Cc1cc(-c2nc3ncccc3o2)ccc1NC(=O)c1ccc(Br)cc1", "activation": "inactive: -0.891%"},
      {"molecule": "CC(C)c1ccc(S(=O)(=O)Nc2ccc3oc4c(c3c2)C(=O)CC(C)(C)C4)cc1", "activation": "inactive: 20.9%"},
      {"molecule": "Cc1ccc2c(=O)cc(CSc3nnc(-c4ccccc4)n3C)[nH]c2c1C", "activation": "inactive: 5.39%"},
      {"molecule": "CCOC(=O)Cn1c(=O)n(C2CCCCC2)c2nc(-c3ccc(Cl)cc3)nc(C(N)=O)c21", "activation": "inactive: 13.4%"},
      {"molecule": "CC1CCN(C(=O)c2cnn(-c3cccc(Cl)c3)c2C2CCN(C(=O)OC(C)(C)C)CC2)CC1", "activation": "inactive: -8.11%"},
      {"molecule": "COc1cc(OC)cc(-n2nnc(-c3nc(-c4ccccc4Cl)no3)c2N)c1", "activation": "inactive: -26.5%"},
      {"molecule": "CC(=O)N1CCc2c(sc3c2c(=O)n(-c2ccccc2C)c(=O)n3Cc2cccc(F)c2)C1", "activation": "inactive: -7.66%"},
      {"molecule": "CC(=O)Nc1ccc(S(=O)(=O)N2CCC(Oc3ccc(-n4cnnn4)cc3)CC2)cc1", "activation": "inactive: 10.4%"},
      {"molecule": "Cc1c(Cl)cccc1NC(=O)c1ccc(C(=O)Nc2cccc(Cl)c2C)cc1", "activation": "inactive: 4.42%"},
      {"molecule": "COCCCNC(=O)c1sc2nc(C)c(C(=O)Nc3ccc(C)cc3C)c(-c3ccc(Cl)cc3)c2c1N", "activation": "inactive: 24%"},
      {"molecule": "CC(=O)N1c2ccccc2C(=O)C1N1CCN(c2ccccc2)CC1", "note": "(stereo not drawn)", "activation": "inactive: -31.6%"},
      {"molecule": "CSc1ccc(CNC(=O)c2ccccc2NC(=O)c2nsc3ccccc23)cc1", "activation": "inactive: -6.95%"},
      {"molecule": "COc1ccc(NC(=O)c2c(-c3ccccc3)c(-c3ccccc3)nn(C)c2=O)c(OC)c1", "activation": "inactive: -27.8%"},
      {"molecule": "CN(CC1(C)CCCO1)S(=O)(=O)c1ccc(Cl)c(S(N)(=O)=O)c1", "note": "(stereo not drawn)", "activation": "inactive: -19.9%"},
      {"molecule": "COc1ccc(OCC(=O)NCC(c2ccc(Cl)cc2)N2CCCCC2)cc1", "note": "(stereo not drawn)", "activation": "inactive: -14.8%"},
      {"molecule": "C[C@@H](O)[C@H]1C(=O)N2C(C(=O)O)=C(SCCN=CN)C[C@H]12", "activation": "inactive: -12.7% and inactive: -1.78%"},
      {"molecule": "O=C(Nc1ccccc1-c1nc2ccccc2s1)c1cc(Cl)cc(Cl)c1", "activation": "inactive: 7.8%"},
      {"molecule": "Cc1c(CNC(C)CCc2ccccc2)c(C(=O)O)c(C)n1Cc1ccc(F)cc1Cl", "note": "(stereo not drawn)", "activation": "inactive: -15.4%"},
      {"molecule": "CC1=C(C(=O)O)N2C(=O)[C@@H](NC(=O)[C@H](N)c3ccc(O)cc3)[C@H]2SC1", "activation": "inactive: 5.39%"},
      {"molecule": "COc1ccc(CN2COc3ccc4c(oc(=O)c5ccccc54)c3C2)cc1OC", "activation": "inactive: -23.5%"},
      {"molecule": "Cc1ccccc1Nc1c(-c2ccc(N3CCOCC3)cc2)nc2ncccn12", "activation": "inactive: -26.5%"},
      {"molecule": "CCCCOc1ccc(C(=O)N(Cc2ccc(C(C)C)cc2)C2CCS(=O)(=O)C2)cc1", "note": "(stereo not drawn)", "activation": "inactive: -40.6%"},
      {"molecule": "COC(=O)c1scc(-c2ccccc2)c1S(=O)(=O)Nc1cccc(C)c1C", "activation": "inactive: -23.6%"},
      {"molecule": "O=C(c1ccccc1Cl)n1nc(-c2cccnc2)nc1NCc1ccc(F)cc1", "activation": "inactive: -36.2%"},
      {"molecule": "Cc1cc(C)c(NC(=O)CCc2c(C)nc3c(c(C)nn3C(C)(C)C)c2C)c(C)c1", "activation": "inactive: 6.97%"},
      {"molecule": "CCOC(=O)c1ccc(NC(=O)CCc2c(C)nc3nc[nH]n3c2=O)cc1", "activation": "inactive: 23.3%"},
      {"molecule": "COc1ccc(N2CCN(C3=NS(=O)(=O)C(c4cccc(Br)c4)=C3C)CC2)cc1", "activation": "inactive: -24%"},
      {"molecule": "COC(=O)c1cc2sc(C)cc2n1Cc1ccc(Br)cc1F", "activation": "inactive: -32.6%"},
      {"molecule": "COc1ccc(C2=NN(CC(=O)NCCCN(C)c3ccccc3)C(=O)CC2)cc1", "activation": "inactive: -31%"},
      {"molecule": "COc1ccccc1N1CCN(CC(O)COc2cc(C)cc(C)c2)CC1", "note": "(stereo not drawn)", "activation": "inactive: 34%"},
      {"molecule": "CCOc1ccc(N2C(=O)N(Cc3ccc(C)cc3C)c3ccccc3S2(=O)=O)cc1", "activation": "inactive: -7.84%"},
      {"molecule": "O=C(O)CCC/C=C\\C[C@@H]1[C@@H](/C=C/[C@H](O)C2Cc3ccccc3C2)[C@@H](F)C[C@@H]1O", "activation": "inactive: -2.3%"},
      {"molecule": "O=c1c2ccccc2n(Cc2cccc(F)c2)c(=O)n1Cc1ccccc1Cl", "activation": "inactive: 7.25%"},
      {"molecule": "COc1cccc(CNC(=O)CCCN2C(=O)CSc3c2c(C)nn3-c2ccccc2)c1", "activation": "inactive: 2.74%"},
      {"molecule": "Cc1ccc(-c2cc(C(=O)NCCc3ccccc3)c3c(-c4ccc(C)cc4)[nH]nc3n2)cc1", "activation": "inactive: -24.6%"},
      {"molecule": "CCn1cc(C(=O)N2CCN(c3cc(C)ccc3C)CC2)c(=O)c2cc(S(=O)(=O)N(C)C3CCCCC3)ccc21", "activation": "inactive: 6.54%"}
    ]}
  ]
}
